Measurements published in PubChem BioAssay AID1745845 (National Center for Advancing Translational Sciences (NCATS), 2022).
In all, about 360,000 compounds went through this assay and about 2,600 (0.72%) were called active. Inconclusive results, whose numbers are uncertain, are shown with a selection of clear calls. Calls follow the shape of the dose curve; as a rule, active = well fitted inhibition curve with a large enough effect; inconclusive = small, poorly fitted or top-dose-only effect; inactive = no such curve, though single readings can be large or run the other way. A potency beside an inconclusive call is a rough fit, not a confirmed value.

assay: Primary qHTS for Inhibitors of ATXN expression; conditions: HEK-293 ATXN2-luciferase reporter, luminescence, 24 h; activity change, negative = inhibition: at 57 µM (top of the series); also: nearly all actives have a fitted effect of over 55% in size
Outline: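 qHTS (up to 57 uM final) was run with 24 h compound exposure of reporter cells at 37 °C. Each well was multiplexed: SteadyGlo luminescence measured ATXN2-luciferase expression after a fluorogenic Gly-Phe-AFC viability readout (25 uM final).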
% is scaled to controls: 0 for no effect and ±100 for the full control effect; potency is read from the fitted curve at half-maximal effect; tags tell the direction and shape of the fitted curve.

Potency, inconclusive:
O=C(/C=C/c1ccc(Cl)cc1)Nc1ccc(CN2CCOCC2)cc1 4.47 µM [inhibitor, partial curve, poor fit]
CC(Sc1nnc2c(n1)[nH]c1ccccc12)C(=O)N(C)C1CCCCC1 (centres undefined) 28.2 µM [inhibitor, partial curve, poor fit]
COc1cc(/C=C/C(=O)c2ccc([N+](=O)[O-])o2)ccc1O 7.94 µM [inhibitor, full curve, poor fit]
N#Cc1ccc(Nc2nc(-c3ccccc3)cs2)cc1 39.8 µM [inhibitor, single point]
O=C(NCc1cccc(Cl)c1)c1cc(COc2ccc3ncccc3c2)on1 3.36 µM [inhibitor, partial curve]
COC(=O)c1c(SCC(=O)Nc2cc(C)cc(C)c2)[nH]c2ccccc2c1=O 31.6 µM [inhibitor, single point]
Cc1ccc(S(=O)(=O)Cc2cc(F)c([N+](=O)[O-])cc2[N+](=O)[O-])cc1 20 µM [inhibitor, single point]
Cc1cc(C)c2sc(N(CCCN(C)C)C(=O)c3ccc(S(=O)(=O)N(C)C4CCCCC4)cc3)nc2c1 31.6 µM [inhibitor, single point]
C/C(=N\NC(=O)c1ccc(CN(C)S(=O)(=O)c2ccc(C)cc2)cc1)c1ccc(OC(F)F)cc1 15.8 µM [inhibitor, partial curve, poor fit]
Cc1ccc(NC(=O)COC(=O)CCc2ccc(S(=O)(=O)N3CCOCC3)cc2)cc1F 0.67 µM [inhibitor, full curve, poor fit]
Cn1cnc(-c2cc3nccc(Oc4ccc(NC(=S)NC(=O)Cc5ccccc5)cc4F)c3s2)c1 30.6 µM [inhibitor, partial curve]
Cc1cc(C)c2c(CC(=O)Nc3ccc(Cl)cn3)coc2c1 31.6 µM [inhibitor, single point]
CC(NC(=O)Cn1ncc(Cl)c(Cl)c1=O)C12CC3CC(CC(C3)C1)C2 (centres undefined) 28.2 µM [inhibitor, single point]
COc1ccc2c(Cl)c(C(=O)NN)sc2c1 39.8 µM [inhibitor, single point]
CCc1nc2ccccc2c(C(=O)OCC(=O)Nc2cccc(S(=O)(=O)N3CCOCC3)c2)c1C 31.6 µM [inhibitor, single point]
COCCNc1ncnc2c1ncn2[C@H]1CN(Cc2ccc(-c3ccccc3)cc2)C[C@@H](CO)O1 31.6 µM [inhibitor, partial curve]
COc1ccc(C(=O)COC(=O)c2ccc3c(c2)NC(=O)CS3)c(OC)c1 22.4 µM [inhibitor, single point]
CCOC(=O)C1=C(CS(=O)(=O)c2ccc(C)cc2)NC(=O)NC1c1ccc(C(C)C)cc1 (centres undefined) 28.2 µM [inhibitor, partial curve]
CCSc1nc2ccccc2n1Cc1cccc([N+](=O)[O-])c1 20 µM [inhibitor, partial curve, poor fit]
Cc1ccc(NC(=O)c2cc(-c3cc(F)ccc3OCC3CCCO3)n[nH]2)cc1NS(C)(=O)=O (centres undefined) 14.1 µM [inhibitor, partial curve, poor fit]
COc1ccc(C(=O)NC(=S)NNC(=O)c2ccc3ccccc3n2)cc1 25.1 µM [inhibitor, single point]
COc1ccc(Nc2ncc(C(=O)N3CCN(c4cccc(Cl)c4)CC3)c3ccccc23)cc1 4.47 µM [inhibitor, partial curve, poor fit]
Cc1ccc(Cl)cc1N1CCN(C(=O)COc2ccc(S(=O)(=O)NC(C)C)cc2)CC1 17.8 µM [inhibitor, partial curve]
Cc1ccc(C(=O)CC2(O)C(=O)N(CCc3ccccc3)c3ccc(Cl)cc32)cc1 (centres undefined) 39.8 µM [inhibitor, single point]
Cc1ccc(CNC(=O)c2cc3c(C)nc4ccccc4c3o2)cc1 23.8 µM [inhibitor, partial curve, poor fit]
COc1ccc(S(=O)(=O)N2CCOC2CNC(=O)C(=O)NCCc2c[nH]c3ccccc23)cc1C (centres undefined) 37.7 µM [inhibitor, single point]
O=C(CCCc1c[nH]c2ccccc12)NCCc1c[nH]c2ccccc12 23.8 µM [inhibitor, partial curve, poor fit]
C[n+]1cccc(O)c1SCc1ccccc1 22.4 µM [inhibitor, single point]
Clc1ccc(COc2ccccc2CNCc2cccnc2)cc1 15.8 µM [inhibitor, partial curve, poor fit]
CCc1nc2c(OCc3ccc(OC(F)F)cc3)cccn2c1N(C)C(=O)c1cccs1 25.1 µM [inhibitor, partial curve, poor fit]
Clc1ccc(-c2cc(C3CCNCC3)[nH]n2)c(Cl)c1 31.6 µM [inhibitor, partial curve, poor fit]
OC(C#Cc1ccccn1)c1cccs1 (centres undefined) 2.24 µM [inhibitor, partial curve]
Cc1ccc(NC(=O)/C(C#N)=C/c2cc(C)n(-c3ccc(N4CCOCC4)c([N+](=O)[O-])c3)c2C)c(C)c1 8.91 µM [inhibitor, partial curve]
CC(=O)Oc1ccccc1Cn1c(C)c(C(=O)NCc2ccccc2C(F)(F)F)sc1=O 28.2 µM [inhibitor, single point]
N#CC(C#N)=C1C=CC=CN1/C(=C\c1ccco1)C(=O)c1ccccc1 8.91 µM [inhibitor, full curve, poor fit]
Cc1ccc(NS(=O)(=O)c2ccc3c(c2)NC(=O)CCS3)cc1C 25.1 µM [inhibitor, single point]
N#C/C(=C\c1ccccn1)c1nc2ccccc2s1 39.8 µM [inhibitor, single point]
COc1ccc2nc(N3C(=O)CNC3=S)sc2c1 39.8 µM [inhibitor, single point]

Potency, active:
O=C1C(Nc2ccc(O)cc2)=C/C(=N/S(=O)(=O)c2cccs2)c2ccccc21 3.98 µM
CNc1ccccc1C(=O)OC(C)C(=O)Nc1ccc(Cl)cn1 (centres undefined) 8.91 µM
CC(NC(=S)NCc1ccc(F)cc1)C12CC3CC(CC(C3)C1)C2 (centres undefined) 14.1 µM
Nc1cccc2nc3ccccc3cc12 7.94 µM
COc1ccc(C2C(O)C(c3c[nH]c4ccccc34)=NN2C(=O)CCl)cc1 (centres undefined) 6.31 µM
COc1ccc2c(c1)[nH]c1c(N3CCN(Cc4ccc5c(c4)OCO5)CC3)ncnc12 14.1 µM
O=c1c(Br)ccc(Br)cc1Br 5.97 µM

Potency, inactive:
Cc1cc(S(=O)(=O)Nc2ccc(-c3ccc(N4CCCCC4)nn3)cc2)c(C)cc1Cl
COc1ccc(NS(=O)(=O)c2cc([N+](=O)[O-])ccc2N/N=C\c2c(C)[nH]c3ccccc23)cc1
CCCNc1ncnc2onc(C)c12
COc1ccccc1NS(=O)(=O)c1ccc(Cl)c(NC(=S)NC(=O)C2CCCC2)c1
CCc1ccc(NC(=S)N2CCC(NC(=O)c3ccccc3OC)CC2)cc1
CCC(=O)Nc1cc2c(C)cc(=O)oc2cc1C
COc1ccc(NC(=S)NCc2ccco2)cc1
CN1CCN(c2cccc3c2S(=O)(=O)N[C@H](Cc2ccccc2)CO3)CC1
O=C(CN1C2=NCCN2c2ccccc21)C12CC3CC(CC(C3)C1)C2
CCOC(=O)c1c(NC(=O)/C=C/c2ccc3c(c2)OCO3)sc(C)c1CC
COc1ccccc1C(=O)NCCn1cc(SCC(=O)Nc2cc(C)on2)c2ccccc21
COc1ccc(OCc2nnc(SC(C)C(=O)Nc3ccc(N4CCOCC4)cc3)n2C)cc1 (centres undefined)
Cc1cc(C)cc(N2C(=O)CSC23C(=O)N(CC(=O)NCCc2ccccc2)c2ccccc23)c1 (centres undefined)
Cc1nc(C)c(-c2csc(Nc3cccc(O)c3)n2)s1
CCN(CC)C(=O)C1CCCN(C/C=C/c2ccccc2[N+](=O)[O-])C1 (centres undefined)
Cc1csc2nc(COc3ccccc3NC(=O)c3ccco3)cc(=O)n12
COc1ccccc1CNC(=O)c1ccc(N2CCCC2)c(NC(=O)NCCC(C)C)c1
COc1ccc(CNC(=O)C[C@H]2C[C@H](C(=O)N3CCCCC3)[C@@]3(C)c4[nH]c5ccc(Cl)cc5c4CCN3C2=O)cc1OC
COc1ccc(C)cc1S(=O)(=O)N1CCN(c2cccc(Cl)c2)CC1
CCC1(c2ccccc2)NC(=O)N(CC(=O)Nc2cccc(S(=O)(=O)N3CCCCC3)c2)C1=O (centres undefined)
CN1CCN(c2nc(N3CCN(c4ccccc4)CC3)ncc2F)CC1
CC(C)(C)NC(=O)CSC(=Nc1ccc(F)cc1)NC#N
CN(C)CCCNc1nc2cc(-c3ccccc3)sc2c(=O)n1C

Activity change, negative = inhibition, inconclusive:
C=CCNC(=O)c1ccc(CN(c2ccc(OCC)cc2)S(=O)(=O)c2ccc(C)cc2)cc1 -47.4% [inhibitor]
